Data: publication PMC11832770, “NADH-bound AIF activates the mitochondrial CHCHD4/MIA40 chaperone by a substrate-mimicry mechanism” (The EMBO Journal, 2025)
These are yes or no findings as the source states them, for the method shown. For some assays here: Binding seen in cells or lysates may run through a third protein. Some entries that bind do so weakly or less than the wild type. For some assays here: Where a sequence is shown, tags or fusion partners need not be part of it.

Chains of the proteins cited; added tags and fusions are not shown. Lines headed by an entry give the natural chain unless they say otherwise; changes in a name come on top.
UniProt O95831: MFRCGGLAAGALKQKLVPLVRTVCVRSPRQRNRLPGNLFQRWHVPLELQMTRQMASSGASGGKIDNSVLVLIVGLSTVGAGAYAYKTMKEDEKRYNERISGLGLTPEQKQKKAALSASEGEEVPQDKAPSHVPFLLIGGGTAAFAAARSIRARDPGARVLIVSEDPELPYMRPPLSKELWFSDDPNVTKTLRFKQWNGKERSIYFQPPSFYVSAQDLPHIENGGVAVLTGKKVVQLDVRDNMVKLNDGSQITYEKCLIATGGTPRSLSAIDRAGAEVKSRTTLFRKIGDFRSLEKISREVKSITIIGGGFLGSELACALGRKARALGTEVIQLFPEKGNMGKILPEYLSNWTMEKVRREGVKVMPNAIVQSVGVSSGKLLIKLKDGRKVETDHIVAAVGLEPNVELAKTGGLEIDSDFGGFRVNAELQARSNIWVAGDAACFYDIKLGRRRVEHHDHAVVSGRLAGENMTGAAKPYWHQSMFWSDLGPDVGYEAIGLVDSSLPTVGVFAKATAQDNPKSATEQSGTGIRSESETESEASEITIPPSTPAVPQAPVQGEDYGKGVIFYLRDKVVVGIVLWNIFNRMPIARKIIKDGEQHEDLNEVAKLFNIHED

Experiments:
CHCHD4-WT-HA (human) = target: T1, CHCHD4-WT-HA (human) (UniProt Q8N4Q1); experiment: co-IP; 293T cells transfected with HA-tagged CHCHD4 constructs; whole-cell lysate (25 mM HEPES pH 7.5, 150 mM NaCl, 5 mM TCEP, 0.5 mM EDTA, 0.1% Tween-20) precipitated with anti-HA and Protein G Dynabeads; blot for endogenous AIF
T1 sequence: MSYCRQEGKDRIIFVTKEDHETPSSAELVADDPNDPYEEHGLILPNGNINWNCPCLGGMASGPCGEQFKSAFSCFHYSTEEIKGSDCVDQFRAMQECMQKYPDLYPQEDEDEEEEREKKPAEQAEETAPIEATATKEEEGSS

[1] = target: T2, CHCHD4-AIA-HA (I12A/F14A) (human) (UniProt Q8N4Q1); experiment: as above
T2 sequence: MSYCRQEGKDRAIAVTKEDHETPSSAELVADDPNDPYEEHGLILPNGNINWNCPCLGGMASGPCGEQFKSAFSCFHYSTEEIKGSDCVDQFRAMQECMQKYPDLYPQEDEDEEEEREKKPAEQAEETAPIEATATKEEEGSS

[2] = target: T3, CHCHD4-SPS-HA (C53S/C55S) (human) (UniProt Q8N4Q1); experiment: as above
T3 sequence: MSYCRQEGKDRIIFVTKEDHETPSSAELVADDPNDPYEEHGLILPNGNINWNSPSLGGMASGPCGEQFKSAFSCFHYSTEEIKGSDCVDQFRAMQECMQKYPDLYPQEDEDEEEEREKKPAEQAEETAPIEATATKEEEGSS

[3] = target: T4, CHCHD4-AIA-A-HA (I12A/F14A/H20A) (human) (UniProt Q8N4Q1); experiment: as above
T4 sequence: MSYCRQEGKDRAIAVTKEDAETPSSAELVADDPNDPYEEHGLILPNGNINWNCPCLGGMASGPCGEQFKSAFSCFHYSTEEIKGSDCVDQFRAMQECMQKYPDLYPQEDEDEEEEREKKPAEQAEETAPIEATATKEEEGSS

[4] = target: T5, ΔN-CHCHD4-HA (residues 40-142) (human) (UniProt Q8N4Q1); experiment: as above
T5 sequence: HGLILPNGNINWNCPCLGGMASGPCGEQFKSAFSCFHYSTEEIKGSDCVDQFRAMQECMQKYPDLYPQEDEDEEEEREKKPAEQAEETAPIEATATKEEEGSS

[5] = target: T6, CHCHD4-SX9S-HA (C64S/C74S/C87S/C97S) (human) (UniProt Q8N4Q1); experiment: as above
T6 sequence: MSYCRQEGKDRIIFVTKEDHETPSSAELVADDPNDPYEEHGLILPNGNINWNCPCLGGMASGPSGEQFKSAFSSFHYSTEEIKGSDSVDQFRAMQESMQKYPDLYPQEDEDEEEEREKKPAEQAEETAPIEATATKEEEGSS

[6] = target: T7, Atto488-ΔN-CHCHD4-SPS, unfolded (human) (UniProt Q8N4Q1); experiment: condition: only with NADH but without AIF; up to 30 µM CHCHD4-SPS; MST; as a11 but with NADH only, no AIF (NADH control); both purified
T7 sequence (chain, ATTO 488 (NHS ester) on the N-terminus): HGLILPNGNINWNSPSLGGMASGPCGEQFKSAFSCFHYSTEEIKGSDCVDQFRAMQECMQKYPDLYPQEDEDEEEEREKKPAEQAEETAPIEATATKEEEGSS

[7] = target: T7, Atto488-ΔN-CHCHD4-SPS, unfolded (human); experiment: condition: only with AIF(78-613) but without NADH; up to 30 µM CHCHD4-SPS; MST; as a11 but with AIF(78-613) without NADH (unstimulated AIF monomer); both purified
[8] = target: T8, CHCHD6, unfolded and reduced (human, UniProt Q9BRQ6 1-235); experiment: ITC; 700-750 µM CPC-inactivated CHCHD4 constructs titrated into 50 µM unfolded substrate; 25 mM HEPES pH 7.5, 150 mM NaCl, 1 mM TCEP; 25 °C; both purified
T8 construct: CHCHD6 (MIC25), human, CX9C import substrate; construct from the DNASU Plasmid Repository inserted into pET30a; also called unfolded CHCHD6 substrate; MIC25; source: E. coli Rosetta2Gami(DE3), purified; unfolded by heating at 70 °C for 20 min with TCEP; not shown: GB1-6X-His, N-terminal, cleaved
T8 sequence (looked up): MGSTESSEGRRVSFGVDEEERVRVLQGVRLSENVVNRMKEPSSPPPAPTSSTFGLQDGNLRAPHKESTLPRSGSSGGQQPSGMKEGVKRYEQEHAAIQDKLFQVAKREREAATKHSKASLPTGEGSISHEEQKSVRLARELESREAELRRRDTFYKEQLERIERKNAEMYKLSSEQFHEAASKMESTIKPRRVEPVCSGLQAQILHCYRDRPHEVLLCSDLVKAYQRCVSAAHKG

Atto488-AIF(78-613)/NADH [9] = target: T9, Atto488-AIF(78-613)/NADH (human, UniProt O95831 78-613, ATTO 488 (NHS ester) on the N-terminus); experiment: MST; CHCHD4 constructs titrated (1.8 nM–15 or 30 µM) into 100 nM Atto488-AIF(78-613) with unlabeled AIF and NADH (pre-formed charge-transfer complex); 25 mM HEPES pH 7.5, 150 mM NaCl, 0.01% Tween-20, 5 mM TCEP; 25 °C; first block of Table 1 (Fig. 1B); both purified
T9 construct: Apoptosis-inducing factor (AIF), human, residues 78-613; also called Atto488-AIF-NADH; Atto488-AIF/NADH

[10] = target: ΔN-CHCHD4-SPS (residues 40-142, C53S/C55S) (human) (UniProt Q8N4Q1); experiment: SEC; Superdex 75 10/300, 25 mM HEPES pH 7.5, 150 mM NaCl, without reducing agent (also ± 5 mM βME and after 0-10 mM TCEP); 200 µM samples; monomer against disulfide-mediated dimer; both purified
Atto488-AIF(78-613)/NADH [11] = target: T9, Atto488-AIF(78-613)/NADH; experiment: MST; CHCHD4 interface mutants titrated (1.8 nM–15 or 30 µM) into 100 nM Atto488-AIF(78-613) with unlabeled AIF and NADH; same buffer, 25 °C; third block of Table 1 (Fig. 2A), fitted with a Hill coefficient; both purified
AIF(78-613), wild type = target: T10, AIF(78-613), wild type (human, UniProt O95831 78-613); experiment: SEC-MALS; Superdex 200 10/300 in 25 mM HEPES pH 7.5, 150 mM NaCl, 0.02% sodium azide; AIF 33 µM, CHCHD4 50 µM with 5 mM TCEP, complexes with 120 µM NADH, incubated 10 min at room temperature; both purified
T10 construct: Apoptosis-inducing factor (AIF), human, residues 78-613, lacking the inner mitochondrial membrane tether; Construct from Brosey et al 2016; also called Apoptosis-inducing factor; AIF + NADH; source: E. coli Rosetta2(DE3), purified (Ni-NTA, PreScission cleavage, subtractive Ni-NTA, Superdex 200)

endogenous AIF (293T cells) (from UniProt O95831 102-613)
binding (CHCHD4-WT-HA (human)): binds | binding [1]: no binding | binding [2]: binds | binding [3]: no binding | binding [4]: no binding | binding [5]: binds

B1: CHCHD4-SPS (C53S/C55S), full length (natural protein, human, UniProt Q8N4Q1 1-142, looked up)
chain: MSYCRQEGKDRIIFVTKEDHETPSSAELVADDPNDPYEEHGLILPNGNINWNSPSLGGMASGPCGEQFKSAFSCFHYSTEEIKGSDCVDQFRAMQECMQKYPDLYPQEDEDEEEEREKKPAEQAEETAPIEATATKEEEGSS
notes: source: E. coli Rosetta2Gami(DE3), purified (Ni-NTA, PreScission cleavage, subtractive Ni-NTA, Superdex 75); not shown: GB1-6X-His, N-terminal, cleaved
binding [6]: no binding | binding [7]: no binding | binding [8]: binds weakly

B2: ΔN-CHCHD4 (residues 40-142) (domain or fragment, human, UniProt Q8N4Q1 40-142, looked up)
chain: HGLILPNGNINWNCPCLGGMASGPCGEQFKSAFSCFHYSTEEIKGSDCVDQFRAMQECMQKYPDLYPQEDEDEEEEREKKPAEQAEETAPIEATATKEEEGSS
notes: also called N-terminal truncation mutant; source: E. coli Rosetta2Gami(DE3), purified (Ni-NTA, PreScission cleavage, subtractive Ni-NTA, Superdex 75); not shown: GB1-6X-His, N-terminal, cleaved
binding (Atto488-AIF(78-613)/NADH [9]): no binding (tested: 15 (or 30) µM)

B3: ΔN-CHCHD4-SPS (residues 40-142, C53S/C55S) (domain or fragment, human, UniProt Q8N4Q1 40-142, looked up)
chain: HGLILPNGNINWNSPSLGGMASGPCGEQFKSAFSCFHYSTEEIKGSDCVDQFRAMQECMQKYPDLYPQEDEDEEEEREKKPAEQAEETAPIEATATKEEEGSS
notes: Folded, as titrant in ITC and in analytical SEC; also called ΔN-SPS; source: E. coli Rosetta2Gami(DE3), purified (Ni-NTA, PreScission cleavage, subtractive Ni-NTA, Superdex 75); not shown: GB1-6X-His, N-terminal, cleaved
binding [10]: no binding (tested: 200 µM)

B4: CHCHD4-AIA-A (I12A/F14A/H20A) (protein, UniProt Q8N4Q1 1-142)
chain: MSYCRQEGKDRAIAVTKEDAETPSSAELVADDPNDPYEEHGLILPNGNINWNCPCLGGMASGPCGEQFKSAFSCFHYSTEEIKGSDCVDQFRAMQECMQKYPDLYPQEDEDEEEEREKKPAEQAEETAPIEATATKEEEGSS
binding (Atto488-AIF(78-613)/NADH [11]): no binding (tested: 15 (or 30) µM) | binding (AIF(78-613), wild type): no binding (tested: 50 µM)

B5: CHCHD4-H20D (protein, UniProt Q8N4Q1 1-142)
chain: MSYCRQEGKDRIIFVTKEDDETPSSAELVADDPNDPYEEHGLILPNGNINWNCPCLGGMASGPCGEQFKSAFSCFHYSTEEIKGSDCVDQFRAMQECMQKYPDLYPQEDEDEEEEREKKPAEQAEETAPIEATATKEEEGSS
binding (Atto488-AIF(78-613)/NADH [11]): no binding (tested: 15 (or 30) µM)
